PubChem BioAssay (NCI)
Several values for one entry are separate records, joined by “and”; a condition that tells them apart may be missing. Equal values may be shown once.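 Where inhibition never reached the appropriate level, the endpoint shown equals the highest concentration tested. Otherwise, values were interpolated linearly from a five-concentration, 48-hour dose response in 96-well plates. Here, GI50 denotes the concentration required for 50% inhibition of growth. At the TGI there is no net growth.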

test system: NCI-H322M lung; experiment: growth of human tumour cells (NCI), 48 h

Compound	TGI	GI50
O=C1C2C(C(=O)N1c1ccccc1)C1(c3ccccc3)CCC2(C(=O)c2ccccc2)O1 (stereo unspecified)	> 10 µM	
C#CC[C@@H]1C[C@]2(C)[C@H]3CC[C@@H]4[C@H]5C(C(=C)C)CC[C@]5(C(=O)NCCCN5CCN(CCCN)CC5)CC[C@@]4(C)[C@]3(C)CC[C@H]2C(C)(C)[C@H]1OC(C)=O (stereo partly specified)	2.99 µM	1.62 µM
COC1/C=C(C)/C=C/C(C)/C=C/C(=O)OC(/C(C)=C/C=C(\C)CNC(=O)[C@H](CO)NC=O)C(C)/C=C/C=C/C(OC)CC/C=C(C)/C=C/C1 (stereo partly specified)	> 1 µM	
CCOCCOCCOCc1nc(C#N)c(N)o1	> 100 µM	
O=C1NC(=C(Cl)Cl)/C(=N/S(=O)(=O)N2CCCCC2)N1	5.66 µM	2.19 µM
O=C(C(=O)c1cc2ccccc2[nH]1)c1cc2ccccc2[nH]1	> 347 µM	
Cc1cc2c(C(=O)NC[C@H](C)c3ccccc3)c(O)c(O)cc2c(O)c1-c1c(C)cc2c(C(=O)NC[C@H](C)c3ccccc3)c(O)c(O)cc2c1O	16.4 µM	0.64 µM
CSc1ncnc2c1ncn2CCC(=O)O	> 100 µM	
Cc1nn(CNc2ccccc2C(F)(F)F)c(=S)n1/N=C/c1cccc2cccnc12	> 100 µM	> 100 µM
Cc1cnc2ccc(C)c([N+](=O)[O-])c2c1NCCCN(C)C	> 100 µM	
COC(=O)c1cc2c(=O)n(C)c3ccccc3n2c1C(=O)OC	> 100 µM	
Cc1nc([N+](=O)[O-])cn1-c1nc2ccccn2c1[N+](=O)[O-]	> 100 µM	
CCc1nc(N)nc(N)c1-c1ccc(Cl)c([N+](=O)[O-])c1	> 100 µM	
C=CCOC(=O)CC[C@H](NC(=O)[C@@H](CCC(F)(F)F)Cc1ccc(O)cc1)C(=O)OCC=C	> 100 µM	
O=C1Nc2c(ccc(Cl)c2Cl)/C1=C/c1cc(Br)c(O)c(Br)c1	> 91.9 µM	12.8 µM
O=C1N[C@@H]2[C@@H](O)[C@@H](O)[C@H](O)C[C@H]2c2cc3c(c(O)c21)OCCO3	0.661 µM	0.126 µM
N#C/C(=C\c1ccc(F)cc1)c1nc(-c2cc3ccccc3oc2=O)cs1	> 100 µM	
COc1ccc(Cc2c3cc(O)c(=O)cc-3ccn2C)cc1	> 100 µM	
CC(=O)Nc1ccc2c(c1)/C(=C\c1ccc([N+](C)(C)C)cc1)c1ccccc1-2	78.7 µM	
Cc1ccc2c(c1)C(=C(C#N)C#N)CCCS2(=O)=O	> 100 µM	
N#CC(c1ccccc1)N(CCCCCCN(C(=O)c1ccccc1)C(C#N)c1ccccc1)C(=O)c1ccccc1 (stereo unspecified)	> 100 µM	
C/C=C(\C)c1cc(=O)c2c(C)cc3c(c2o1)C(=O)c1c(O)c(C2CC(C)(N(C)C)C(OC(C)=O)C(C)O2)cc(C2CC(N(C)C)C(O)C(C)O2)c1C3=O (stereo unspecified)	29.3 µM	
O=C(O)c1ccccc1C(=O)NCC1S(=O)(=O)OCCOS1(=O)=O	> 100 µM	

Compound	TGI	GI50
O=C1[C@H]2ON(c3ccccc3)C(c3ccc([N+](=O)[O-])cc3)[C@H]2C(=O)N1c1ccc(Cc2ccc(N3C(=O)[C@@H]4ON(c5ccccc5)C(c5ccc([N+](=O)[O-])cc5)[C@@H]4C3=O)cc2)cc1 (stereo partly specified)	> 100 µM	
Cc1cc(S(=O)(=O)NC2=NCc3nc4ccccc4n32)c(S)cc1Cl	75.3 µM	
COc1cc2c(cc1OC(C)C)[C@H](c1ccc(Cl)cc1)N(c1ccc(N(C)CC3CCC(N4CCN(C)C(=O)C4)CC3)cc1)C(=O)C2 (stereo partly specified)	18.2 µM	2.94 µM
COc1ccc2c(c1)Cc1c(NCCN(C)C)ccc(C(=O)NCCCN(C)CCCNC(=O)c3ccc(NCCN(C)C)c4c3Nc3ccc(OC)cc3C4)c1N2	0.655 µM	
CCCCCCCCCCCCCCCC1=NCC[N+]1(CCO)CCO	18.5 µM	5.58 µM
CN=C1Nc2ccccc2C(=O)N2CSCC12 (stereo unspecified)	> 100 µM	
C=CCC1(CN(C)C)CC/C(=C\c2ccc(OC)cc2)C1=O (stereo unspecified)	> 100 µM	
CC1=C(C(=O)OC2CC3CCC2(C)C3(C)C)C2Nc3ccccc3N(C)C2O1 (stereo unspecified)	9.62 µM	
COc1ccc(C(CC2(c3ccc(OC)cc3)SCCCS2)NC(C)=O)cc1 (stereo unspecified)	> 100 µM	
COc1ccc(N=c2oc3ccccc3cc2C(N)=O)cc1	> 100 µM	
CCCCN1C(=O)C2Cc3c([nH]c4ccccc34)C(c3cccc(O)c3)N2C1=O (stereo unspecified)	31.4 µM	
O=C1/C(=C/c2cccc(Cl)c2)CCCc2ccccc21	35.4 µM	
c1ccc2c(CSCc3cccc4ccccc34)cccc2c1	> 100 µM	
CC(C)C[C@H](NC(=O)CNC(=O)c1cc(Cl)ccc1Cl)B(O)O	12.6 µM	0.511 µM
CC(C)(C)C(=O)OCOP(=O)(NCc1ccccc1)C1CCCN(O)C1=O (stereo unspecified)	20 µM	2.55 µM
CC(C)(C)[Si](OC1CCOC1=O)(c1ccccc1)c1ccccc1 (stereo unspecified)	> 100 µM	
COc1cc(/C=C2\CC3C4CC=C5C[C@@H](OC(C)=O)CC[C@]5(C)C4CC[C@]3(C)C2=O)ccc1OCCN1CCCCC1 (stereo partly specified)	20.4 µM	7.61 µM
Cc1c(C)c2ccc3oc4ccccc4c3c2oc1=O	> 100 µM	
CCOC(OC(C)=O)[C@@H]1C=C[C@H](C)N(c2ccc([N+](=O)[O-])cc2)O1 (stereo partly specified)	31.4 µM	
CN(Cc1ccccc1)Cn1ccnc1	> 100 µM	
O=C(O)c1cc(-c2ccc3cc4c(cc3c2)OCO4)nc2ccccc12	> 100 µM	
COc1cc(C(=O)NC2CCc3cc(OC)c(OC)c(OC)c3-c3ccc(OC)c(=O)cc32)cc(OC)c1OC (stereo unspecified)	11.4 µM	
COc1cccc(/C=N/n2c(Cc3ccccc3)n[nH]c2=O)c1	> 100 µM	

Compound	TGI	GI50
CC(C)CC(NC(=O)C(C)(CI)Cc1ccccc1)C(=O)Nc1ccccc1 (stereo unspecified)	> 100 µM	
Cc1ccc2c(=O)cc(-c3sccc3C)[nH]c2n1	> 100 µM	
O=C1/C(=C\c2ccc(Cl)cc2)N=C(c2ccccc2)N1n1c(=O)cn[nH]c1=S	> 100 µM	
CN1C=c2c3c(ccc2=C2C=CC4C=C5OCOC5=CC4=C21)OCO3 (stereo unspecified)	4.17 µM and 27 µM	1.96 µM and 13.6 µM
CCOC(=O)C1(C#N)OC(=O)c2cnccc21 (stereo unspecified)	> 100 µM	
Cc1nc2sccn2c1C(=O)NN	> 100 µM	
CC[C@H](C)[C@H](NC(=O)[C@H]1CCCCN1C)C(=O)N(C)[C@H](C[C@@H](OC(C)=O)c1cccc(C(=O)N[C@@H](Cc2ccccc2)C[C@H](C)C(=O)OC)n1)C(C)C	> 25 µM	0.00463 µM and 0.0109 µM
Cc1ccc(O)c(Cc2nc3ccccc3nc2-c2cccc(Cl)c2)c1	> 100 µM	
Cc1cc(S(=O)(=O)Nc2n[nH]c(-c3ccc(Cl)cc3)n2)c(SSc2cc(Cl)c(C)cc2S(=O)(=O)Nc2n[nH]c(-c3ccc(Cl)cc3)n2)cc1Cl	84.1 µM	
CC(=O)NC1C(OC(C)C(=O)NC(C)C(=O)NC(CCC(=O)NCCCCCNc2ccc([N+](=O)[O-])c3[nH]c4ccccc4c(=O)c23)C(N)=O)C(O)C(CO)OC1(C)OCc1ccccc1 (stereo unspecified)	> 100 µM	
CCN(CC)CCCNc1nccc2c(C)c3c(cc12)c1cnccc1n3C	0.465 µM	
COc1ccc2ncn(-c3cc(O[C@H](C)c4ccccc4C(F)(F)F)c(C(N)=O)s3)c2c1	15.4 µM	3.87 µM
Cc1ccc(C)c(N2C(=O)C(=O)C(c3nc4ccccc4s3)/C(=N/N)C2=O)c1 (stereo unspecified)	> 100 µM	
COc1ccc(/C=C\c2cc(OC)c(OC)c(OC)c2)cc1OCC(=O)Nc1nc2ccc(F)cc2s1	> 100 µM	> 100 µM
O=C(NCCCCN1CCOCC1)c1cc2ccccc2o1	> 100 µM	> 100 µM
C=C(c1ccc(OC)c(/C=C/C(=O)c2ccc3c(c2)OCO3)c1)c1cc(OC)c(OC)c(OC)c1	> 100 µM	4.73 µM
CC1OC(OC2C(OC(=O)[C@]34CCC(C)(C)C[C@H]3C3=CC[C@@H]5[C@@]6(C)CC[C@H](OC7OC(C(=O)O)C(O)C(O)C7O)C(C)(C)[C@@H]6CC[C@@]5(C)[C@]3(C)C[C@H]4O)OCC(O)C2O)C(O)C(O)C1OC1OCC(O)C(O)C1O (stereo partly specified)	22.3 µM and 14.5 µM	10.3 µM and 4.19 µM
C[C@H](C1CC(C)(O)C(C)(O)C(O)O1)[C@H]1CC[C@H]2[C@@H]3[C@@H]4O[C@@H]4[C@@]4(O)CC=CC(=O)[C@]4(C)[C@H]3CC[C@]12C (stereo partly specified)	> 50 µM	
CC(C)(O)C(O)COc1c2c(cc3oc(=O)ccc13)OCO2 (stereo unspecified)	> 100 µM	
O=C(CN(/C=C/C(=O)C(F)(F)F)c1ccc(Cl)cc1)c1ccc(Cl)cc1	25.4 µM	12.2 µM
O=c1oc2ccc3ccccc3c2cc1-c1nnc(Nc2ccccc2)s1	> 100 µM	
